± gives the standard deviation of the averaged measurements. The list shows a part of the results.
Tested on: PfAP2-LT AP2 domain (GST-tagged)
Assay: gcPBM binding intensity (ln(normalized median fluorescence intensity)); higher = stronger DNA binding
In short: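 Alexa488 anti-GST antibody, scanned at 488 nm, detected GST-tagged P. falciparum DNA-binding domains that had been expressed in E. coli and incubated for 1 h on an Agilent 4 × 180k array. The array carried primer-extended double-stranded 36-bp intergenic genomic probes and negative controls. Binding intensity is the highest Masliner-normalised natural-log median intensity across replicate spots of either orientation of each probe.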

Row | Sequence | gcPBM binding intensity (ln)
1 | CCAAAAAATATATGTAGTACTACATTATTAAATATG [XGTACX_site5128] | 8.71 ± 0.35
2 | AAAAAAAACACGCGCACACACACACCCACAGACACA [CACACA_site5253] | 10.2 ± 0.14
3 | TATTTTTTAAAAAATTATAAATAAAATTATATTACG [CACACA_negctrl_site324] | 8.1 ± 0.39
4 | TATATATATAAATACACACACACACCCCAAAGCGTA [CACACA_site4211] | 9.86 ± 0.24
5 | TATAATATATTCACTCGTACATATTTAATAATATCT [XGTACX_site6209] | 8.65 ± 0.52
6 | ACAGTATATTAAAAAATACACACGTATTATATCTAC [CACACA_site2640] | 8.95 ± 0.38
7 | ATACCTGTTGTGTTACGTACATAATTTTAATGTTTG [XGTACX_site8181] | 9.04 ± 0.39
8 | AAATTCAATTTGCGCTGTACATGAAGATATAAATTT [XGTACX_site4844] | 8.85 ± 0.42
9 | ATAAATTTTTTATGAACACACAAATACCCACGCTCA [CACACA_site2659] | 9.04 ± 0.33
10 | TTTTAATTAAATAAATGTACTCATTCTATTATTTAT [XGTACX_site3032] | 8.54 ± 0.43
11 | TATTACACATATTATGTGCACATATATAATCAATAT | 8.94 ± 0.4
12 | ATTTTATTTTTGTGCACACTGATAAATTGAAAAGAG [CACACA_site2948] | 8.82 ± 0.4
13 | AAAAAAAAAAATTAAAGTACTAATTAAAATTATATG [XGTACX_site5289] | 8.27 ± 0.55
14 | TATATATATATAATATGTACATATATTAAGCATTTT [XGTACX_site4470] | 8.81 ± 0.29
15 | ATGTAGGTTAATTATTGTACGTAGGGGGTGTATATT [XGTACX_site3973] | 9.7 ± 0.18
16 | TTCAGAGAATAAAAATGTACATATAATATTTTAAAA [XGTACX_site577] | 8.48 ± 0.5
17 | CTCTTGTCATTTTGCACACACACATGTATAGGTTAT [CACACA_site3057] | 9.85 ± 0.35
18 | TAAATTTGTGGGATTTCACACAGGTTTATTTACATT [CACACA_site5455] | 8.7 ± 0.42
19 | GTGTTAACTATTATGAGTACTTATGTATTAATTCAT [XGTACX_site7767] | 8.77 ± 0.37
20 | TTGCTTATTAAATGGGGTACATTATATATATATATA [XGTACX_site2515] | 8.99 ± 0.42
21 | TTTCTAATTTATATCACACACATATATTTATAGTAA [CACACA_site6280] | 8.83 ± 0.48
22 | GTTTACTAATATTGCACACGAATATGAAAAAGAGAA [CACACA_site2897] | 9.03 ± 0.42

Row | Sequence | gcPBM binding intensity (ln)
23 | AGAGTATATAAAGTAACACACAATAAAATAAAATAA [CACACA_site2328] | 9.18 ± 0.49
24 | CATATAGTATAAATTTGTACATAAATATATATATAT [XGTACX_site7477] | 8.93 ± 0.3
25 | ATAATATCTTCTTTTTTTTTTTTTTTTTTTTTTTTT [CACACA_negctrl_site1005] | 8.62 ± 0.28
26 | AAATGATGCATTTGTCATTAAAATTGTGAAATATTA [CACACA_negctrl_site231] | 8.56 ± 0.47
27 | AAAAAAAAAAAAAAAAGTACATATATATATAATTAT [XGTACX_site7836] | 8.75 ± 0.47
28 | TATAATAAAATATGTACACACATACAGACATATATA [CACACA_site6693] | 9.11 ± 0.38
29 | TAATTAAGATGATAAAAATTGAAAAAACAATTTTAA [CACACA_negctrl_site658] | 8.24 ± 0.33
30 | ATATATATATAATGTGTACACACATATGTATTTATA [CACACA_site8170] | 9.15 ± 0.33
31 | CTGTTTTACTTTAGTAGTACAATAAAAATATAAAAA [XGTACX_site2934] | 8.41 ± 0.35
32 | TATTACCCATATTATACACACATATATTATATATAT [CACACA_site1567] | 9.22 ± 0.44
33 | AAAAAAAAAAAACATACACACAAATATATACATACA [CACACA_site4011] | 9.15 ± 0.33
34 | TAATTTTATATTAAAAGTACATAATAAAAACTATAA [XGTACX_site8779] | 8.32 ± 0.43
35 | AAGAAATATATATATATATATATATATATATATGTA [TGCATGCA_negctrl_site442] | 9.53 ± 0.38
36 | AGAGCATAATAAAACACACACATACATACAGATATA [CACACA_site4671] | 9.58 ± 0.34
37 | TTTAAAAACAAATATTGTACAAATTAAAATATATCA [XGTACX_site7220] | 8.54 ± 0.4
38 | CACTAATATATATACAGTACATAATAAAGTATATAA [XGTACX_site6875] | 8.81 ± 0.38
39 | TGATGATATAAAAACACACACATATAATATAATACT [CACACA_site1208] | 9.4 ± 0.4
40 | AGTTATATGGTTAATACACACAACAAATGTTTCTTC [CACACA_site6642] | 9.06 ± 0.3
41 | GTGTGATGGTACAATATACACACTTAAAAAAAAAAA [CACACA_site8769] | 8.97 ± 0.49
42 | AAAAAATATATTTGCACACTCAAAAAAAAAAAAAAA [CACACA_site859] | 8.73 ± 0.47
43 | ATACATAAAATTAAAACACACATTTTATTAAATACG [CACACA_site2167] | 8.76 ± 0.39
44 | TAAGAAATAAATAGTACACACATAGACACACGCACA [CACACA_site6821] | 9.73 ± 0.23

— the supplement of paper PMC11417369
